# Laboratory results from the supplement of paper PMC3334620.
# Whole data set: some 33,000 sequences, median “E-score (-0.5 to 0.5)” near -0.012, cut for the highest 2% near 0.27. This is one part of the list.
# Target: T1, Vhr1 (UniProt P40522)
# T1 sequence: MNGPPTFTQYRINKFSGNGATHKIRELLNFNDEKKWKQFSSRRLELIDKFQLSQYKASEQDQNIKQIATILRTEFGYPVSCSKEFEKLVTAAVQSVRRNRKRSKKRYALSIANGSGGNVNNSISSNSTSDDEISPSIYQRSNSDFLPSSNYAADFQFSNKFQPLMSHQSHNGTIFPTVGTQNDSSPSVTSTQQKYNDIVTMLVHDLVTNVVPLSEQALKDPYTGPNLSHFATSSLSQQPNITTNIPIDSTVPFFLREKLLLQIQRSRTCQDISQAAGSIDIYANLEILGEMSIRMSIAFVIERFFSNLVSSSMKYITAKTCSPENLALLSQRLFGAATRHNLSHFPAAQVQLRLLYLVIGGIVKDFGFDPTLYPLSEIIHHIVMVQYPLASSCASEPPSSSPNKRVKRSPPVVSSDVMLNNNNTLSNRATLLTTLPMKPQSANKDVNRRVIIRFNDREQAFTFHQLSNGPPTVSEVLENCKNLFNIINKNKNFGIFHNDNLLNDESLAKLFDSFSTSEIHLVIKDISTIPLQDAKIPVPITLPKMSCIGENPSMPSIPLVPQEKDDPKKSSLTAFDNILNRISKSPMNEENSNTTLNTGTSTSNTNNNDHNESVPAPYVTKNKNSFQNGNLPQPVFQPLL
# Assay: PBM E-score (8-mer binding enrichment) (E-score (-0.5 to 0.5)); higher = stronger / more preferred TF binding; most listed sequences are background and not binding sites
# Conditions: protein concentration: 200 nM; construct: GST-full length
# Method: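 Universal 'all 10-mer' protein binding microarrays (Agilent AMADID 015681) probed with GST-tagged S. cerevisiae TFs (full-length or DBD) made by in vitro transcription/translation (PURExpress), about 100-200 nM. Bound TF was detected with fluorescent anti-GST. Each ungapped 8-mer (which stands for itself and its reverse complement) is scored by the PBM enrichment score (E-score), a modified Wilcoxon-Mann-Whitney statistic from -0.5 to +0.5, computed with the Universal PBM Analysis Suite. Scale: above 0.35 generally sequence-specific binding.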
row,Sequence,PBM E-score
1,CTTTAAAC,-0.285
2,GCTCTTCA,-0.147
3,CATACTCA,0.285
4,AACCCGGC,-0.189
5,AGTCGGGA,0.205
6,GACTGCGC,0.103
7,CCATAGCA,0.0998
8,ATAAAACA,-0.125
9,ACCTCGTA,0.112
10,CGCCACAC,0.196
11,AATGGCGG,0.0431
12,CTCAAACC,0.0714
13,ATGCTGCG,0.0386
14,CACAGTAG,0.00925
15,CCATCTTA,-0.00123
16,CGAGGGAG,0.0601
17,ACTAGTTG,-0.00362
18,GTACAGAC,-0.0665
19,AATCGGTC,-0.00595
20,CCCTCTGC,-0.364
21,CCGATACA,-0.056
22,ATGTAGAG,-0.231
23,ATCCATCG,0.0134
24,CCCTCTAG,-0.0547
25,CACAATGA,0.286

row,Sequence,PBM E-score
1,CAAAATTG,-0.0949
2,AAGTCTGG,-0.102
3,ATCATATG,0.174
4,CAGCAGCA,0.0586
5,AGTCTGCA,-0.119
6,GATAACGA,0.0151
7,GACTCGCA,0.319
8,CTTCCAAA,-0.31
9,CGGAGCTC,-0.286
10,AACAAATG,-0.0364
11,CCTTTTAC,0.0295
12,ACTTAGAT,-0.0097
13,GGACATAC,-0.00803
14,ATGCAGAC,0.0179
15,TCAGGCAA,0.0347
16,CCCATGAA,0.0105
17,CAGCTAGA,0.0392
18,AACGTTTG,-0.0879
19,CATAGAAC,0.0546
20,AGATAACA,0.0447
21,GTGCTCTA,-0.0581
22,CCCGCGAA,0.137
23,ATCGTAAG,-0.0907
24,ACTGCCGC,0.101
25,AGTAAAAC,-0.114

row,Sequence,PBM E-score
1,CGTGCATC,-0.0587
2,GAAGATCC,-0.239
3,GCAGGACA,-0.153
4,CCTCGCTA,-0.23
5,CTGTTACA,0.0932
6,ATATAAGA,0.0901
7,ACCCGTTA,0.0104
8,AAATAAGA,-0.183
9,AAGCGCTG,-0.0816
10,CTCAAGGA,0.0113
11,TCAGCCGA,0.187
12,ACCCATAG,0.0609
13,AAGACCTC,-0.198
14,AGTGATAA,-0.134
15,AAGATTCG,0.0242
16,GCTTAAGA,-0.221
17,AAAGCAAG,0.00927
18,AGCTAACG,-0.237
19,CAATGCTA,-0.073
20,CGTTTGCA,-0.0884
21,CCGCTCGC,0.0504
22,CAAGGAAC,-0.0217
23,AGGCCAAA,-0.106
24,CTGTCGAA,-0.218
25,AGATTGTC,-0.0716

row,Sequence,PBM E-score
1,GGAGTCAA,0.354
2,ACCAGAGA,0.0722
3,GGCGAATA,0.0713
4,GCACTAAA,-0.112
5,GTTAACGA,-0.043
6,CAGCTGGA,0.111
7,ACTGGACG,-0.113
8,CTATCACC,-0.0622
9,AGATCCCA,-0.149
10,AGACGCTC,-0.234
11,CTTCTTGA,-0.0291
12,CTTTACAA,-0.115
13,AAATACGT,-0.0922
14,CTCTGCGA,0.0491
15,CTCGTTAC,-0.00761
16,TATGTCGA,-0.0171
17,AAGGCTCC,-0.172
18,CCGACCCC,-0.135
19,CTTGTCTA,-0.159
20,AACGAACG,-0.0276
21,AGGACAGG,-0.267
22,CAAAAATG,-0.0171
23,AAAGGTTG,-0.178
24,CCTGACGC,-0.197
25,AACTATGG,-0.0595

row,Sequence,PBM E-score
1,GCTAGGCC,-0.125
2,AGTATTAT,-0.132
3,AGAACTTC,-0.182
4,CTATTTGA,-0.122
5,TAATGTCA,-0.0164
6,GAAGATAC,0.00993
7,CCCACCCA,0.263
8,AACTAGGA,-0.208
9,CAGCGTTA,-0.084
10,TAAATAAA,-0.149
11,CGGACTTA,-0.189
12,GACAGGTC,-0.162
13,GCAGGCGA,0.0554
14,CATCTACC,0.188
15,ATAGTGCG,0.128
16,AACACGGA,0.2
17,ACTAAGTA,0.0363
18,AAGGGCGC,-0.0838
19,CCGGCCAC,-0.189
20,AGGTATGC,-0.0105
21,AACTAGTG,-0.128
22,CGTCCGAG,-0.103
23,CAATCCTA,-0.132
24,AGTCGGGG,0.248
25,AGACCTAG,-0.00186

row,Sequence,PBM E-score
1,CCCCTAGC,-0.209
2,GGCACGCA,-0.0899
3,ACAGTAAC,0.227
4,ACGCGGGG,0.179
5,CACTGCTA,-0.0886
6,CGACGAGC,-0.0522
7,ACTGGGGC,-0.213
8,CCTTAAGC,-0.203
9,TCGGAGAA,0.026
10,TCGAGCAA,-0.0616
11,AGGACATG,-0.0607
12,GGCTGACC,-0.0749
13,ATAGGCGA,-0.0938
14,GATAACCA,0.123
15,CGGTCTAC,-0.0173
16,AACAATCG,-0.115
17,CGTTAGTA,0.149
18,AGTGTACC,-0.0103
19,CCGATGAA,-0.0715
20,TAGCCCGA,-0.11
21,CTGGTTCC,0.0593
22,GCCGGCGC,0.0181
23,CTTTTTTC,-0.218
24,CAGGAGCC,-0.0558
25,AGTGCGCA,0.112

row,Sequence,PBM E-score
1,ACTACGAT,0.129
2,ATGCGCCG,-0.0423
3,GTGGCACA,-0.014
4,AGGTTGGC,-0.0591
5,ATTAAAAC,0.0909
6,GCGCCAAC,-0.0311
7,CGCGGGAG,0.115
8,TCTTCTCA,-0.102
9,ACCAGAGT,0.00338
10,AGAGTCCT,-0.17
11,GATCCTGC,-0.0104
12,CCCGAAGC,-0.0472
13,TACTGCCA,-0.0155
14,CACTTATG,0.181
15,GACCCAGA,0.0388
16,CAATTCCG,-0.104
17,GACAGACC,-0.067
18,AACAGACA,0.285
19,AGATGCAA,-0.0804
20,AACAGCAG,-0.00716
21,ATGCGCTC,-0.0739
22,ACACCTTA,-0.109
